This is an account of results in the supplement of paper PMC11417369.

± gives the standard deviation of the averaged measurements. Some of the results follow.

For the assay, the system named is PfAP2-EXP AP2 domain (GST-tagged). Briefly: gcPBM binding intensity (ln(normalized median fluorescence intensity)); higher = stronger DNA binding. Summed up: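 DNA-binding domains from P. falciparum, fused to GST and produced in E. coli, were put on an Agilent 4 × 180k double-stranded probe array for 1 h in 1× PBS holding 1% milk, 0.2 mg/ml BSA, 0.5% salmon testes DNA and 0.03% Triton X-100. Probes were primer-extended, 36 bp long and drawn from intergenic genomic regions, with negative controls included. After Alexa488 anti-GST antibody detection and a 488 nm scan, binding intensity was set as the highest Masliner-normalised natural-log median intensity across replicate spots of either probe orientation.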
In the case of “TATAATACAACATGCACACATATATATGTGAATCTC [CACACA_site2490]”, the “gcPBM binding intensity (ln)” value was determined as 8.87 ± 0.33.

For “ATAAAATAAACATAAATAAACATAAATAAACAAAAA [CACACA_negctrl_site1270]”, the “gcPBM binding intensity (ln)” value stood at 8.75 ± 0.4.

As to “AGGTATATATACATATGTACGTATATATATATATAT [XGTACX_site5115]”, the “gcPBM binding intensity (ln)” value is 10.1 ± 0.13.

As for “GGCGTATGTGTATATACACACCCACGTATATAAATA [CACACA_site7489]”, the “gcPBM binding intensity (ln)” value came out at 8.68 ± 0.42.

With “TTTCTAATTTATATCACACACATATTTATATAGTAA [CACACA_site6813]”, the “gcPBM binding intensity (ln)” value came to 8.4 ± 0.33.

“TTATATAAATTATTTACACACAAACATTTATACTTT [CACACA_site3449]”: the “gcPBM binding intensity (ln)” value amounted to 8.38 ± 0.36.

“ATACTTTATTCGTTAGCACACAATTCAAGTTGATTC [CACACA_site1123]”: the “gcPBM binding intensity (ln)” value amounted to 8.71 ± 0.42.

“TATTCCCTTCTTCCTTCTGTTTTTGATATTAAAGGG [GTGCAC_negctrl_site270]”: the “gcPBM binding intensity (ln)” value was found to be 8.71 ± 0.49.

As to “AAGATACCCCAAAATTGTACATATTAAAATAATAAA [XGTACX_site3603]”, the “gcPBM binding intensity (ln)” value stood at 9.12 ± 0.48.

Consider “ATATTCATATATACTTCACACACATTTTATCATTCA [CACACA_site8784]”, for which the “gcPBM binding intensity (ln)” value was 8.71 ± 0.39.

As to “AAAAAAAAAAATAAATAAATAAATAAATATATATAT [TGCATGCA_negctrl_site468]”, the “gcPBM binding intensity (ln)” value was found to be 9.27 ± 0.028.

Consider “TACATACATATATATACACACATATATAATATATAT [CACACA_site388]”, for which the “gcPBM binding intensity (ln)” value worked out at 8.45 ± 0.4.

With “TATATATACATATACACACATACGTACATACATATA [CACACA_site3585]”, the “gcPBM binding intensity (ln)” value worked out at 8.75 ± 0.31.

Regarding “ATGAAAGTAAGACATGCATGGAATTTTTTTTATTAG [TGCATGCA_site348]”, the “gcPBM binding intensity (ln)” value is 8.35 ± 0.35.

As to ATAATCCAACTTTGAGTGCGTGGTGTTTTTTTTTTC, the “gcPBM binding intensity (ln)” value is 8.24 ± 0.26.

Turning to “GGAATATTTTATGAGTGTACATTTTTTTTTTTTTTT [XGTACX_site2370]”, the “gcPBM binding intensity (ln)” value was determined as 8.45 ± 0.24.

“TTTCTTTTTTTTTTTTTTTCTTTTTTTTTTTTTTTC [CACACA_negctrl_site1025]”: the “gcPBM binding intensity (ln)” value worked out at 8.06 ± 0.57.

Take “CATATACATATATGTAGTACGTGTTCTTCTATATGA [XGTACX_site8344]”: the “gcPBM binding intensity (ln)” value was 8.8 ± 0.33.

As for “AAATTGAATTAGTTAACACACAACTTTTATTTCATA [CACACA_site2840]”, the “gcPBM binding intensity (ln)” value turned out to be 8.29 ± 0.42.

With “ATTAATATGAAACGATTATAAGAAAGAAAAGAAATG [GTGCAC_negctrl_site701]”, the “gcPBM binding intensity (ln)” value stood at 8.69 ± 0.61.

For the sequence “TACATATACAGACACACACACACACCCCCACAAAAA [CACACA_site495]”, the “gcPBM binding intensity (ln)” value is 9.88 ± 0.52.

As to “GTTATATGTTATATATATATATATATATATATATAT [TGCATGCA_negctrl_site428]”, the “gcPBM binding intensity (ln)” value was 10.2 ± 0.65.

For “AAATTAATAAGTCACACACACATATATAATATATAT [CACACA_site799]”, the “gcPBM binding intensity (ln)” value worked out at 8.54 ± 0.36.

With “AATATATACATTTATATACACACCTATATATATATA [CACACA_site1972]”, the “gcPBM binding intensity (ln)” value amounted to 10 ± 0.2.

“AGCATCATTTTACACACATGCAAATGTAAAATAGGA [TGCATGCA_site460]”: the “gcPBM binding intensity (ln)” value came out at 8.83 ± 0.42.

Regarding “ATAAAGATTAATTCAAGTACACATCAAATACTACAA [XGTACX_site8794]”, the “gcPBM binding intensity (ln)” value amounted to 8.53 ± 0.26.

“TATATATATTTATGTACACACATCAATCATATTAAC [CACACA_site5127]”: the “gcPBM binding intensity (ln)” value is 8.7 ± 0.057.

In the case of “ATAAATAAAATAAAAGCACACAAAATGTAAATAATT [CACACA_site8895]”, the “gcPBM binding intensity (ln)” value came to 8.8 ± 0.3.

TTTACCTCTTCAATGGTGCAATAACTCAAAAATTTG: the “gcPBM binding intensity (ln)” value was 8.56 ± 0.11.

As to “TTTTTATTTTATTAGTGTACTTTATATTTAACAATA [XGTACX_site1175]”, the “gcPBM binding intensity (ln)” value is 8.65 ± 0.2.

Turning to “AAAAAAAAAAAAAGTACACACATACCTATAAATATA [CACACA_site6937]”, the “gcPBM binding intensity (ln)” value was determined as 8.47 ± 0.37.

“TTTATTTTTATAAGAGCATGCACTGTTTAAAATGGT [TGCATGCA_site628]”: the “gcPBM binding intensity (ln)” value came out at 9.39 ± 0.25.

Take “TATATATTTATAAATGAACACACACCCAATTTGAAT [CACACA_site9113]”: the “gcPBM binding intensity (ln)” value was 8.96 ± 0.42.

Consider “TTTATATACATTTTAAATTTTAATGTAACCCATGGG [TGCATGCA_negctrl_site115]”, for which the “gcPBM binding intensity (ln)” value was found to be 8.38 ± 0.59.

“TATATACCTATATACACACACATATATAAATAAATA [CACACA_site7341]”: the “gcPBM binding intensity (ln)” value worked out at 8.53 ± 0.63.

“TATTTCTGATTACATACACACATATACAGATATGAC [CACACA_site7490]”: the “gcPBM binding intensity (ln)” value was 8.52 ± 0.4.

Turning to “TTTGTATTGTGCAGATGTACATTATAATATTGGATT [XGTACX_site5033]”, the “gcPBM binding intensity (ln)” value worked out at 8.68 ± 0.35.

For the sequence “ATTACATACGAGCACACGTAAAAGTATAATATAAAA [GTGCAC_negctrl_site446]”, the “gcPBM binding intensity (ln)” value came out at 8.57 ± 0.37.

As for “TATGTTCCATTTTTTGGTACACATACAATAACTGCT [XGTACX_site2256]”, the “gcPBM binding intensity (ln)” value was determined as 8.32 ± 0.26.

For the sequence “TTATATATAATATATACACACACATGTATATATAAA [CACACA_site8603]”, the “gcPBM binding intensity (ln)” value was 8.3 ± 0.34.

Consider “AACAAATACAAAGAATAGTCATCTGAATGGTGTTAT [GTGCAC_negctrl_site685]”, for which the “gcPBM binding intensity (ln)” value is 8.54 ± 0.43.

In the case of “ATAATGATTATAATATGTACATAAATATATATATTA [XGTACX_site5029]”, the “gcPBM binding intensity (ln)” value is 8.61 ± 0.42.

Consider “AAACAATACATATATTGTACATATATTATATTATAT [XGTACX_site8136]”, for which the “gcPBM binding intensity (ln)” value is 8.43 ± 0.36.

On to “AAAAAATCAAAACACACACACACACCCAAAAAAAAA [CACACA_site1444]”, for which the “gcPBM binding intensity (ln)” value came out at 8.52 ± 0.45.
